The source of these data is FireProtDB (doi:10.1194/jlr.m002113).

The conditions of the data set: Homo sapiens; for denaturant m value / denaturant midpoint (higher = more stable) / unfolding free energy: 4 °C, Urea; for Tm / unfolding enthalpy (van 't Hoff): Thermal.
Where [1] appears, read: pH 7.4, CD, Tris-HCl 10000.0, NaCl 150000.0, reversible: yes.
The mark [2] stands for this setting: pH 7.4, CD, sodium phosphate buffer 10000.0, reversible: yes.
[3] abbreviates: pH 7.5, CD, sodium phosphate buffer 10 mM.
Setting [4] is: pH 7.5, fluorescence, sodium phosphate buffer 10 mM, reversible: yes.

Where “and” joins values, the source holds several entries; their conditions need not be identical. Equal entries are not always repeated.

As usually defined, the Tm is the temperature at which the thermal transition is half complete. With “Apolipoprotein A-I wild type (letters omitted)”, under setting [1], the denaturant m value was 1.5 kcal/mol/M and 1.4 kcal/mol/M; the “denaturant midpoint (higher = more stable)” value was 2.7 M and 2.5 M; the unfolding free energy was 3.9 kcal/mol and 3.3 kcal/mol. Also, under setting [2], the midpoint of thermal melting (Tm) is 60 °C and 57 °C; the “unfolding enthalpy (van 't Hoff)” value was 33 kcal/mol and 41 kcal/mol. Besides, under setting [3], the denaturant m value was 1.5 kcal/mol/M and 1.4 kcal/mol/M; the “denaturant midpoint (higher = more stable)” value was 2.7 M and 2.5 M; the unfolding free energy is 3.9 kcal/mol and 3.3 kcal/mol. Also, under setting [4], the Tm is 60 °C and 57 °C; the “unfolding enthalpy (van 't Hoff)” value is 33 kcal/mol and 41 kcal/mol.
